Values joined by “and” are separate entries in the source; they are usually repeats but may differ in a detail not shown here. Identical values can stand only once.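 Grown in 96-well plates, cells were treated for 48 hours with each compound at five concentrations. Insufficient inhibition: endpoint recorded as highest concentration tested. The concentration for 50% growth inhibition is given as GI50. TGI: concentration producing complete growth inhibition.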 Peptide text beside a SMILES is read from it. * marks the point of attachment. Boc = CC(C)(C)OC(=O)*; OtBu = CC(C)(C)O*
Tested on: NCI-H322M lung
Test: DTP human tumour cell line panel, 48 h

SMILES | GI50 | TGI
CC(C)OC(=O)OCOP(=O)(OCOC(=O)OC(C)C)C1CCCN(O)C1=O (stereo not drawn) | 1.04 µM | > 100 µM
CSC(SC)=C1Sc2cccc(Cl)c2S1 |  | > 100 µM
Cc1ccc(CNc2ccc(Cl)cc2NCc2ccc(C)c(O)c2)cc1O | 7.85 µM | 15.3 µM
COCc1nc(C#N)c(N)o1 |  | > 10 µM
O=c1[nH]nc(Nc2ccc(Cl)cc2)c2nnn(-c3ccc([N+](=O)[O-])cc3)c12 |  | > 100 µM
CCc1cccc(CC)c1NC1=CC(=O)C(=O)c2ccccc21 |  | 41.8 µM
CCCN1CCCC(c2ccc(Nc3nc(Nc4cc(F)ccc4C(N)=O)c4cc[nH]c4n3)c(OC)c2)C1 (stereo not drawn) | 0.314 µM | 4.57 µM
Cc1[nH]n(C(=O)Cc2ccccc2)c(=O)c1/C=C1\C(=O)C=Cc2ccccc21 |  | > 100 µM
COc1ccc2c(c1)OCC1c3cc(OC)ccc3OC21 (stereo not drawn) | > 100 µM | > 100 µM
COC(=O)[C@]1(CCC(C)=O)C(=O)C=CN([C@H](C)c2ccccc2)[C@@H]1Cc1ccc(OC)c(OCc2ccccc2)c1I |  | 58.5 µM
COc1cc(Nc2nc(NS(=O)(=O)c3cc(C)c(Cl)cc3S)n[nH]2)cc(OC)c1OC |  | > 100 µM
Cc1c(CNc2ccc(Cl)c(Cl)c2Cl)cnc2nc(N)nc(N)c12 |  | > 44.6 µM
C/C(=N\NC(N)=O)C(CN1CCOCC1)C(c1ccccc1)c1c(O)c2ccccc2oc1=O (stereo not drawn) |  | > 100 µM
NC(Cc1c2ccccc2cc2ccccc12)C(=O)O (stereo not drawn) |  | > 100 µM
COc1cc(/C=C2\C(=O)Nc3ccc(O)cc32)cc(OC)c1OC | 22.5 µM | 59 µM
N/C(=N\O)c1cn(C2OC(CO)C(O)C2O)c2ncnc(N)c12 (stereo not drawn) | 0.513 µM | > 47.9 µM
CCCCCCCC(=O)N1C2CC3CCC2(CS1(=O)=O)C3(C)C (stereo not drawn) |  | > 10 µM
N#CN1CCC2CC(=O)CCC2C1 (stereo not drawn) |  | > 100 µM
CCCCCCCCCCCCNC(=O)N[C@H](C(=O)N[C@H]1/C=C/OCCNC(=O)/C=C/[C@H](C(C)C)NC1=O)C(C)C | > 100 µM | > 100 µM
O=C(c1ccccc1)N1N=C(C(F)(F)F)CC1(O)C(F)(F)F (stereo not drawn) |  | > 100 µM
CC[C@@]12CC(C(=O)OC)=C3Nc4ccccc4[C@@]34CCN(C[C@H]3O[C@H]31)[C@@H]24 | > 100 µM | > 100 µM
COc1ncc(-c2ccc3nc(N)n(-c4ccccc4C(F)(F)F)c(=O)c3c2)cc1S(=O)(=O)Nc1ccc(F)cc1F | 0.384 µM | 5.57 µM
CC(=O)OCCn1c(Cc2ccc(Cl)cc2)nn(C(C)=O)c1=O |  | > 100 µM
O=C(c1ccco1)c1c(C(F)(F)F)n([O-])c2cc(Cl)c(Cl)cc2[n+]1=O | 8.16 µM | 15.2 µM
CCC[CH2][Sn]1([CH2]CCC)[O]C(=O)c2cccnc2[S]1 | 14.2 µM | 27.5 µM

SMILES | GI50 | TGI
CCOC(=O)c1cn2c(n1)sc1cc([N+](=O)[O-])ccc12 |  | > 100 µM
FC(F)(F)c1ccc(-c2cnc(-c3nn[nH]n3)nc2NC2CCCCCC2)cc1 | > 10 µM | > 10 µM
C=C1C(=O)O[C@H]2[C@H]1CC/C(COC(=O)NCc1ccc(Cn3c(=O)sn(CCCI)c3=O)cc1)=C\CC[C@@]1(C)O[C@@H]21 | 11.6 µM | 24.1 µM
O=C(CC1(O)C(=O)Nc2ccc(Br)cc21)c1cccc([N+](=O)[O-])c1 (stereo not drawn) |  | > 100 µM
C=C1C(=O)O[C@H]2[C@@H]3O[C@@](C)(CC/C=C(\C)CCC[C@@H]2C)[C@H](O)C[C@@H]13 |  | 36.1 µM
COC(=O)C#CC1(O)C=CC(=O)C=C1 |  | 24.2 µM
CCOc1ccc(-c2nc3ccc(-c4nc5ccc(N6CCN(C)CC6)cc5[nH]4)cc3[nH]2)cc1OCC | 2.42 µM | 8.64 µM
CC(=O)O[C@H]1CC[C@@]2(C)C(=CC[C@@H]3[C@@H]2CC[C@]2(C)C(=O)/C(=C\c4ccccc4)C[C@@H]32)C1 |  | > 100 µM
CS(=O)c1cc(=O)c2ccccc2s1 (stereo not drawn) |  | 39 µM
CC(=O)OC1=C(c2ccccc2)S(=O)(=O)c2ccccc21 |  | > 100 µM
C#CC[C@]12CC(=O)CC[C@H]1CC1(C2)OCCO1 |  | > 100 µM
CNC(=S)N/N=C/CSC/C=N/NC(=S)NC | > 100 µM | > 100 µM
CCn1nc(C#Cc2c(C)ccc3c(Nc4ccc(Cl)cc4)nccc23)c2c(N)ncnc21 | 24.6 µM | > 100 µM
Cc1c(Cl)ccc2[s+]snc12 |  | > 100 µM
COc1cc2nc(NC3CCC3)nc(NC3CCN(C(C)C)CC3)c2cc1OC | 3.01 µM | 13.2 µM
COc1cccc(-c2cc(-c3ccc(Nc4nc(Nc5ccc(Cl)cc5)nc(Nc5ccc(Cl)cc5)n4)cc3)nc(N)c2C#N)c1 | 57.5 µM | > 100 µM
O=P(c1ccccc1)(c1ccccc1)C1CC=C2CCCCCC2C1 (stereo not drawn) |  | 73.6 µM
COc1cc(C(=O)N[C@@H]2CCCN(C)C2)ccc1Nc1ncc2c(n1)N(C1CCCC1)CC(C)(C)C(=O)N2C | 9.41 µM | 22.9 µM
O=c1ccn([C@@H]2C[C@H](CO)CS(=O)C2)c(=O)[nH]1 (stereo partly drawn) |  | > 100 µM
O=C1C/C(=C\c2ccccc2)C(=O)c2ccccc2N1 |  | 30 µM
COc1cc(CC2c3cc(OC)c(OC)cc3CCN2C)c(C(=O)O)cc1OC (stereo not drawn) |  | > 100 µM
COc1cc(/C=C(\C#N)C(=O)c2ccccc2)cc(OC)c1OC |  | > 100 µM
CCOc1cc(NC(C)=O)ccc1C(=O)NN1C(=O)/C(=C/c2ccc(Cl)cc2)N=C1c1ccccc1 |  | > 100 µM
CC(=O)Nc1ccc(/C=C/C(=O)c2sc(-n3nc(-c4ccccc4)cc3-c3ccccc3)nc2C)cc1 |  | > 100 µM
CC1CC(=O)C(CC(=O)O)[C@H]1C(C(=O)C(=O)Nc1cc(Cl)ccc1Cl)[N+](=O)[O-] (stereo partly drawn) |  | > 100 µM

SMILES | GI50 | TGI
COc1ccccc1Nc1nc(N)nc(N)c1N |  | > 100 µM
C[C@@H](NC(=O)Nc1cccc(C(=O)Nc2cc(C(C)(C)C)ccc2C(=O)O)n1)c1ccccc1 |  | > 100 µM
O=c1oc2cc(O)ccc2c(O)c1C(c1ccc(/C=C/c2ccccc2)cc1)c1c(O)c2ccc(O)cc2oc1=O |  | > 100 µM
O=C(Nc1cc(Cl)ccc1Cl)c1cc2ccccc2oc1=O |  | > 100 µM
CCCCc1c2c([n+]([O-])c3c1CCCC3)CCCC2 |  | > 100 µM
CC/C(=C\c1ccc(N(C)C)cc1)c1ccncc1 | 43 µM | > 100 µM
O=C1OCC2=C1C(c1ccc(Cl)cc1)c1cc3c(cc1O2)OCO3 (stereo not drawn) |  | > 100 µM
CCN(CC)CCN1C(=O)c2cccc3cc(N)cc(c23)C1=O |  | 25.8 µM
COc1ccc(CC(COS(=O)(=O)c2ccc(C)cc2)NS(=O)(=O)c2ccc(C)cc2)cc1 (stereo not drawn) |  | 46.2 µM
Nc1nc(N)c2nc(CNc3ccc(C(=O)NC(CCC(=O)O)C(=O)O)cc3)cnc2n1 (stereo not drawn) |  | > 100 µM
CCc1ccc2cc3c(ccc4ccccc43)c3c2c1CC3 | > 100 µM | > 100 µM
Cc1cc(Br)ccc1N=NC1C(=O)ON=C1c1ccccc1 (stereo not drawn) |  | > 100 µM
CCOC(=O)c1nc2ccccc2nc1Oc1ccc(F)cc1 |  | > 100 µM
C/C=C/C(C/C=C(\C)CO[Si](C)(C)C(C)(C)C)O[Si](C)(C)C(C)(C)C (stereo not drawn) |  | > 100 µM
Nc1c2ccccc2nc2ccccc12 | 2.62 µM and 3.86 µM | 6.89 µM and 30.4 µM
C/C(=C/C(=O)N(C)c1ccccc1Cl)O[Si](C(C)C)(C(C)C)C(C)C |  | 61.4 µM
CC(C)(C)OC(=O)CC(NC(=O)OC(C)(C)C)C(=O)NC(Cc1ccccc1)C(N)=O (stereo not drawn) (Boc-Asp(OtBu)-Phe-NH2; configuration not given here) |  | > 100 µM
CCCCCCCCCCCCOC(=N)N1CCOCC1 |  | 30.2 µM
Nc1cc2c(C3OC(CO)C(O)C3O)[nH]nc2c(=S)[nH]1 (stereo not drawn) |  | > 100 µM
COc1cc(Br)c(C2OCCCO2)cc1OCc1ccccc1 |  | > 100 µM
COC1=C(OC)C(=O)c2cc(C)c(=O)c(C)cc2C1=O |  | 32.3 µM
Cc1ccc(Nc2nc3ccccc3nc2NS(=O)(=O)c2ccc(N)cc2)cc1 |  | > 100 µM
O=c1[nH]c2c(ccc3cnccc32)c2c1CCC2 | 0.322 µM | 16.3 µM
O=C(N=Nc1c(O)[nH]c2c(Cl)cc(Cl)cc12)C(=O)Nc1cccc(C(F)(F)F)c1 |  | > 100 µM
Cc1ccccc1C1N=C2Oc3ccccc3C=C2C(=O)N1 (stereo not drawn) | 10.1 µM | > 100 µM

SMILES | GI50 | TGI
CCN(CC)CCCC(C)Nc1ccnc2cc(OC)ccc12 (stereo not drawn) | 29.3 µM | 84.6 µM
CCCCP1(=O)C=CC(Cl)=C(C)C1 (stereo not drawn) |  | > 100 µM
Cn1c2ccccc2n2c3ccccc3c3nnc(N)c-3c12 |  | > 100 µM
CN(C)CCCn1c2c(c3ccc(N4CCNCC4)cc3c1=O)C(=O)c1ccccc1-2 | 0.451 µM | 2.29 µM
Cc1cc2c(=O)cc(-c3ccncc3)oc2c(C(N)=O)c1C |  | > 100 µM
CN(C)CCC(C#N)(c1ccccc1)c1ccccc1 |  | > 100 µM
COC(=O)c1c(O)ccc2c1c1c(n2CCc2ccccc2)C(=O)c2ccccc2C1 |  | > 100 µM
O=C1/C(=C/c2ccc(Cl)cc2)NC(=S)N1CN1CCCCC1 |  | > 100 µM
COc1ccc(-c2cc(-c3ccc(Cl)cc3)c(C#N)c(=O)n2CCCCCC(=O)Nc2ccccc2N)cc1 | 8.88 µM | > 100 µM
COc1ccc2c(c1)SC1=Nc3sc4cc(OC)ccc4[n+]3CN12 |  | > 100 µM
O=[N+]([O-])c1ccc(-c2ccc([C@H]3CC(c4cc(F)c(Cl)cc4Cl)=NN3)o2)cc1 |  | > 100 µM
CC(=O)OCC1OC(NC(=S)Nn2c(-c3ccccc3)nc3ccccc3c2=O)C(OC(C)=O)C(OC(C)=O)C1OC(C)=O (stereo not drawn) |  | > 100 µM
N#CC(C#N)=CNC(=S)Nc1ccc(S(=O)(=O)Nc2nccs2)cc1 |  | > 100 µM
O=C(NC(=Nc1ccccc1)SCCSC(=Nc1ccccc1)NC(=O)c1ccccc1)c1ccccc1 |  | > 100 µM
Cc1cccc2c(=O)c3cccc(CC(=O)O)c3oc12 |  | > 100 µM
COC(=O)c1nc2n(n1)-c1ccccc1C(=O)N(Cc1ccccc1)C2 |  | > 100 µM
CCc1c(N=[N+]=[N-])c2ccccc2oc1=O |  | > 100 µM
CC(=O)OCC1OC(Sc2nc(-c3ccccc3)c(C#N)c(=O)n2C2OC(COC(C)=O)C(OC(C)=O)C(OC(C)=O)C2OC(C)=O)C(OC(C)=O)C(OC(C)=O)C1OC(C)=O (stereo not drawn) |  | > 100 µM
O=c1c2cc(F)ccc2sc2c(NCCCNCCO)nc3ccc(F)cc3c12 | 1.66 µM | 3.16 µM
COc1cnc2c(c1)C(=O)c1c-2n(CCCN2CCNCC2)c(=O)c2cc(F)ccc12 | 0.963 µM | 4.78 µM
C=C(C)[C@@H]1CC[C@]2(C(=O)OC)CC[C@]3(C)[C@H](CC[C@@H]4[C@@]5(C)CC/C(=N\OCCC(=NCCC#N)NOCCC#N)C(C)(C)[C@@H]5CC[C@]43C)[C@@H]12 | > 50 µM | > 50 µM
O=c1cc(O)c1=O |  | > 100 µM
O=C1C(CN2CCCC2)CCC1CN1CCCC1 (stereo not drawn) |  | > 100 µM

Source: PubChem BioAssay (NCI)
